Test results published in PubChem BioAssay AID1963576 (National Center for Advancing Translational Sciences (NCATS), 2024).
Screen size: about 46,000 compounds; about 60 (0.1%) were called active. Not shown: some 3% with an inconclusive outcome. The call rests on the fitted dose curve; in most records, active means well fitted inhibition curve with a large enough effect; inconclusive means small, poorly fitted or top-dose-only effect; inactive means no such curve, though single readings can be large or run the other way. The list shows a part of the results.

experiment: Primary qHTS assay for Inhibitors of ovarian cancer metastasis using an organotypic tumor microenvironment (TME) model.; further: nearly all actives have a fitted effect of over 65% in size;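 on activity change, negative = inhibition: plate controls were DMSO wells for no effect and tomatine positive control wells for full effect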; details: SKOV3ip1-GFP adhesion/invasion on 3D omental model, fluorescence; series mostly up to 45.8 µM; activity change, negative = inhibition: at the top concentration
Outline: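 Primary human omental fibroblast/mesothelial 3D culture pre-formed 48 h. SKOV3ip1-GFP cells added with compounds (0.36-46 umol/L), incubated 2 h RT/16 h 37 C, fixed; GFP cells quantified at 488/509 nm.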

Activity change, negative = inhibition, inactive:
Cc1nn(CC(=O)N2CCC(C)CC2)c(=O)c2cc3sccc3n12 -1.67%
CCOc1ccc(NC(=O)c2cnc(N3CCCC3)nc2C)cc1 3.02%
Cc1c(C(=O)NCC(c2ccc(Cl)cc2)N2CCOCC2)oc2ccccc12 (configuration not stated) 1.06%
CCOc1ccc(N2CC(c3nc4ccccc4n3CCCOc3ccccc3)CC2=O)cc1 (configuration not stated) -2.02%
CCCCOC(=O)c1ccc(NC(=O)c2cc3c(=O)n4cccc(C)c4nc3s2)cc1 0.821%
OC(Cn1cncn1)(Cn1cncn1)c1ccc(F)cc1F 7.78%
Cc1cc(Cl)ccc1OCc1nc(-c2ccc(-n3cccc3)cc2)no1 10.6%
Cc1ccc(-n2c(=O)c3cccnc3n2CC(=O)Nc2ccc(Br)cc2)cc1C -11%
Cc1ccc(NC(=O)CCn2c(=O)c3cccn3c3ccccc32)cc1C -13.5%
CC(C)(C)OC(=O)N1CCC(c2c(C(=O)NCCN3CCc4ccccc4C3)cnn2-c2ccc(F)cc2F)CC1 -0.993%
CCOC(=O)N1CCc2c(sc(NCc3sccc3C)c2C(=O)Nc2ccc(OC)cc2OC)C1 0.159%
Cn1ncc2c(N3CCN(c4cccc(Cl)c4)CC3)ncnc21 -2.58%
COc1ccc(C)cc1NC(=O)CCS(=O)(=O)c1cc2c3c(c1)CCN3C(=O)CC2 5.74%
COc1ccccc1N1CCN(C(=O)c2nc(SC)ncc2Cl)CC1 -8.78%
O=C(Cn1c(SCCOc2ccccc2)nc2ccccc21)N1CCOCC1 2.87%
COc1ccc(N2CC(NC(=O)/C=C\c3ccccc3)CC2=O)cc1 (configuration not stated) 6.14%
C[C@@H](NCCCc1cccc(C(F)(F)F)c1)c1cccc2ccccc12 -13.3%
CC(=O)Nc1cccc(-n2c(=O)n(C3CC3)c(=O)c3c(Nc4ccc(I)cc4F)n(C)c(=O)c(C)c32)c1 11.1%
CC(=O)N1CCc2cc(CNC(=O)Cc3ccc(F)cc3)ccc21 -6.12%
COc1cccc(CNC(=O)C(=O)NCC(c2ccco2)S(=O)(=O)c2cccs2)c1 (configuration not stated) 5.41%
Cc1c(C(=O)OCCOc2ccccc2)[nH]c2c1C(=O)CC(c1ccccc1)C2 (configuration not stated) -3.72%
Cc1cc(OCCn2cc(C(=O)c3cccs3)c3ccccc32)ccc1Cl -5.71%
Cc1cccc(N2CCN(CCCNc3ncnc4onc(-c5ccc(Cl)cc5)c34)CC2C)c1 (configuration not stated) -9.68%
COc1cccc(CNC(=O)CCc2c(C)nc3c(c(C)nn3-c3ccc(C)c(C)c3)c2C)c1 -24.1%
Cc1c(Cl)cccc1NC(=O)COCc1cc(-c2ccc3c(c2)OCO3)on1 -0.823%
COc1ccc(Cl)cc1N(C)C(=O)c1ccc2c(=O)n3c(nc2c1)CCCCC3 -10.7%
Cc1ccc(Cn2ccn(Cc3ccccc3F)c(=O)c2=O)cc1 7.88%
Cc1cc2c(cc1NS(=O)(=O)c1ccc(F)cc1)n(C)c(=O)c(=O)n2C -1.77%
Cc1ccc2nc(-c3ccc(Cl)c(NC(=O)COc4cccc(C)c4C)c3)oc2c1 3.49%
CCN1CCOC(=O)C1CC(=O)Nc1cc(C)ccc1OC (configuration not stated) 3.73%
CCN(CC)c1ccc(NC(=O)CCS(=O)(=O)c2cc3c(cc2Cl)NC(=O)CO3)c(C)c1 9.17%

outcome, inactive:
COc1ccc(CNc2nc3c(-c4cccc(C)c4)nnn3c3ccccc23)cc1
CCCCN(C)CCNC(=O)c1c2c(nc3ccccc13)C(=O)N(C1CCCCC1)C2
CCCNC(=O)CCc1nnc2ccc(N3CCN(c4cccc(OC)c4)CC3)nn12
CCC(=O)N1CCc2cc(Br)cc(S(=O)(=O)CCC(=O)NCCc3cccc(C)c3)c21
Cc1ccc(CN2CCC(CNC(=O)Nc3ccc(Cl)cc3)C2)cc1 (configuration not stated)
Cc1cc(C)cc(NC(=O)C(Cc2ccccc2)NS(=O)(=O)c2ccc3c(c2)c(=O)n(C)c(=O)n3C)c1 (configuration not stated)
CC(Oc1ccc(F)cc1)C(=O)N1CCC(c2nc3ccccc3s2)CC1 (configuration not stated)
CC(C)(C)C(=O)Cn1c(=O)n(-c2ccc(Cl)cc2)c(=O)c2c3c(sc21)CCCC3
O=C(/C=C/c1ccccc1)N1CCN(Cc2cc(=O)n3nc(-c4ccccc4F)sc3n2)CC1
CCOc1ccccc1CNC(=O)C1CCN(C(=O)N2CC(CC)Oc3ccc(C)cc32)CC1 (configuration not stated)
O=C(Nc1ccc2nc(SCC(=O)N3CCOCC3)sc2c1)c1cccc(Cl)c1
CSc1ccc(CCNC(=O)c2ccc(-c3nc(COc4ccccc4)c(C)o3)cc2)cc1
Cc1nc2c(-c3ccccc3)c(C)nn2c(C)c1CCC(=O)N1CCN(c2ccc(F)cc2)CC1
COc1ccc(CCNC(=O)CCn2c(=O)c3ccccc3n(Cc3cc(C)ccc3C)c2=O)cc1OC
Cc1cccc(NC(=O)c2ccc3snnc3c2)c1
Cc1ccc2nc(N3CCN(c4cccc(C(F)(F)F)c4)CC3)c3nnnn3c2c1
